# Some of the results follow.
# T1: UNK ZnF1-6 (called full-length) (human, UniProt Q9C0B0 30-357)
# T1 sequence: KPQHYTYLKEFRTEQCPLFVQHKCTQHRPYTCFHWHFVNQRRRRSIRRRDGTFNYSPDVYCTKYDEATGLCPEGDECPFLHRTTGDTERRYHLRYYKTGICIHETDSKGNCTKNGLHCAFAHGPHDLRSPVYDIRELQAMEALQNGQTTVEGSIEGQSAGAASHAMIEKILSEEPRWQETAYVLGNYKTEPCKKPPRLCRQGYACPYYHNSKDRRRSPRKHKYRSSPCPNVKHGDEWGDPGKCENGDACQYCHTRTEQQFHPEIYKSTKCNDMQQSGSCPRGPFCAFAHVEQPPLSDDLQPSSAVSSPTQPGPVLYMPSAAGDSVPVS
# B1: chr2:10440579:10440691:-|3pUTR|ENSG00000115758|unk|total|mutant (ssRNA)
# RNA: GGGAGUUCUACAGUCCGACGAUCUAACUGCAAGUUCCGCUUGAAUUAAGGGAUUUGGGGGGACCAUGUAACUUAAUUACUGCCCGUUUUGAAAUGUCUUUGUAAGAGCCGGGUCGCCAUGAUGCAGCCAUAUGGAAGACCCGGCAACAGAGGAUUGAGCAUCA
# B2: chr12:118033712:118033825:-|3pUTR|ENSG00000176871|unk|FALSE|unique (ssRNA)
# RNA: GGGAGUUCUACAGUCCGACGAUCCCUCCGCUGGGAACGAUGGCUUCUGCCUAGUACCUAUCCUUGUGUUUCUGAUGCAGUGGUAGCAUUGGUUCAAGUUCUCUCCUGCUGUGGUCAGAGUUGCUUCGAUGUUGGCCAAGUGCUCAACAGAGGAUUGAGCAUCA
# B3: chr7:2728618:2728646:-|3pUTR|ENSG00000146535|msi1_unk|FALSE|overlapping (ssRNA)
# RNA: GGGAGUUCUACAGUCCGACGAUCUUUAAUUUCACUGUUAAUCCUUAUUGUCUUUUUUAUUAAGAUGUUGGAAAAGCAGGAGGUAGUUGUGCCUCAAUUAUUGCAAAAAUGUAACAAUAAAGUUCCUCAAAAUAAGAUCUGUUCCAACAGAGGAUUGAGCAUCA
# B4: chr21:25881051:25881209:-|3pUTR|ENSG00000142192|msi1_unk|FALSE|overlapping (ssRNA)
# RNA: GGGAGUUCUACAGUCCGACGAUCUUUUUUUUCCAUGACUGCAUUUUACUGUACAGAUUGCUGCUUCUGCUAUAUUUGUGAUAUAGGAAUUAAGAGGAUACACACGUUUGUUUCUUCGUGCCUGUUUUAUGUGCACACAUUAGGCAACAGAGGAUUGAGCAUCA
# B5: chr1:94517210:94517403:+|3pUTR|ENSG00000117528|unk|total|mutant (ssRNA)
# RNA: GGGAGUUCUACAGUCCGACGAUCAACAAAUUAACCCGAUACAGAAUAAUGGAGAACAAGUUGUUAAAACAUUUAAUAUUAUACCGGAUAUUGCUAAUUGUGUAUAUGUUGGUUUAAUUAAUAAUAUGUACUAAGAAUGUCCUUCAACAGAGGAUUGAGCAUCA
# B6: chr19:51872534:51873706:-|CDS|ENSG00000161551|control|control|control (ssRNA)
# RNA: GGGAGUUCUACAGUCCGACGAUCCCUAGUGGGCAGAAAUGUAGUGAUUGUGGAACAACCUUUUCCAAGAAAUCAAGCCUUUGUAGUUAAUCAGGAAUUUGAACAGAGAAUAAGCCUCACAAAUGAAGUGAAUGUGGCCCCAUCCAACAGAGGAUUGAGCAUCA
# B7: chr10:128098031:128098192:-|3pUTR|ENSG00000148773|msi1|total|mutant (ssRNA)
# RNA: GGGAGUUCUACAGUCCGACGAUCCAUCUUCAUUUACUUUCCACUUUGCCCCCUGUCCUCUCUGUGUUCCCCAAAUCAGAGAACCGCCCGCCAUCCCCCAGGUCACCUGUCUGGAUUCCUCCCCAUUCACCCACCUUGCCAGGUCAACAGAGGAUUGAGCAUCA
# B8: chr3:149172415:149172516:+|3pUTR|ENSG00000163755|unk|total|mutant (ssRNA)
# RNA: GGGAGUUCUACAGUCCGACGAUCUUACCGUGCCGUGGUAACUAUUCACUUCUUAAUUUAUGACCUCAAUCAAUUUAAUUGUCCCGAAUGUAAAAAGUCUUUAAGACAUAAGAAUUCCUCAAAGAAGCCAUACAUUUUUUAAGGCAACAGAGGAUUGAGCAUCA
# B9: chr13:25097967:25098071:+|CDS|ENSG00000151846|unk|FALSE|unique (ssRNA)
# RNA: GGGAGUUCUACAGUCCGACGAUCAGAACUUCUUUAUAUGCUCGAGUCUCCAGAGUCACUCCGUUCUAAGGUUGAUGAAGCUGUAGCUGUACUACAAGCCCACCAAGCUAAAGAGGCUACCCAGAAAGCAGUUAACAGUGCUACCAACAGAGGAUUGAGCAUCA
# B10: chr1:21603657:21603912:-|CDS|ENSG00000076864|control|control|control (ssRNA)
# RNA: GGGAGUUCUACAGUCCGACGAUCAUUGCUUAUUCCUGGGAAAAGUGCGAGUAGAUUCGGACGCCGGGGCAGUGCCAUAGGCAUAGGAACCGUGGAAGAGGUUGUCGUCCGCGGGGCCGCCGGCUCUGGAGGCUGCCUGCACGCCAACAGAGGAUUGAGCAUCA
# B11: chr12:71139710:71139848:-|CDS|ENSG00000127324|control|control|control (ssRNA)
# RNA: GGGAGUUCUACAGUCCGACGAUCUUUUGGUUCUGAAGAUGUAGGCUCUAGCUCCUACGUUGCUGUGGACAUAUUGAUUGCUGUAGGUGCCAUCAUCAUGAUUCUGGGCUUCCUGGGAUGCUGCGGUGCUAUAAAAGAAAGUCGCAACAGAGGAUUGAGCAUCA
# B12: ENSG00000142669:stop:overlap|stop_codon|ENSG00000142669|stop_codon|NA|stop_codon (ssRNA)
# RNA: GGGAGUUCUACAGUCCGACGAUCAGUACUGUGGGGUAUGGGCUGGGGGACGGGGGGGUGGGGGGAGUGUUGGAAGAGGACUCUAGCCAGGGUCAUAUCUGCCACAAAGCACUUGGGCCCCCUGCAUUCAGGUGACCACCCCUCCAACAGAGGAUUGAGCAUCA
# B13: ENSG00000188706:stop:overlap|stop_codon|ENSG00000188706|stop_codon|NA|stop_codon (ssRNA)
# RNA: GGGAGUUCUACAGUCCGACGAUCAAGAGAUGCCACCUCCAGAGCCCCCAGAGCCACCACAGGAGGCAGCUGAAGCUGAGAAGUAGCCUAUCUAUGGAAGAGACUUUUGUUUGUGUUUAAUUAGGGCUAUGAGAGAUUUCAGGUCAACAGAGGAUUGAGCAUCA
# B14: chr5:36975901:36976008:+|CDS|ENSG00000164190|unk|total|mutant (ssRNA)
# RNA: GGGAGUUCUACAGUCCGACGAUCAUGAAAUCCGGCAAGGAUGAAAAAGAGCAGAGUGAGAAAGCGGCAAUGUAUGAUAUAAUCCGUUCUCCAUCCAAGGACUCUACUAAACUUACAUUAAGACUUUCUCGUGUAAGGUCUUCACAACAGAGGAUUGAGCAUCA
# B15: chr22:21763623:21763656:-|3pUTR|ENSG00000100030|msi1_unk|FALSE|overlapping (ssRNA)
# RNA: GGGAGUUCUACAGUCCGACGAUCGUGCUUCCGUCUCCGGAAUCCUUGGGGAGCACUUGUCCACGUCUUUUCUCAUAUCAUGGUAGUCACUAACAUAUAUAAGGUAUGUGCUAUUGGCCCAGCUUUUAGAAAAUGCAGUCAUUUCAACAGAGGAUUGAGCAUCA
# B16: chr17:78853230:78853302:-|3pUTR|ENSG00000035862|msi1_unk|FALSE|overlapping (ssRNA)
# RNA: GGGAGUUCUACAGUCCGACGAUCCUCUUCUCCUAUUUUCAUCCUGCAAGCAACUCAAAAUAUUUAAAAUAAAGUUUACAUUGUAGUUAUUUUCAAAUCUUUGCUUGAUAAGUAUUAAGAAAUAUUGGACUUGCUGCCGUAAUUCAACAGAGGAUUGAGCAUCA
# B17: chr5:137752703:137752764:-|3pUTR|ENSG00000177733|msi1_unk|total|mutant (ssRNA)
# RNA: GGGAGUUCUACAGUCCGACGAUCGGGAGGGAGUGAACUUGCUGAUUCUGCCGCAAAACCUGGGUGGGGGUUGGGGUGGGGGGCCGUUUACUUUGUUGUAAGGACUUGAUAACCUGGCUACAGCGUUUUCUAUGAAAUCUACUUCAACAGAGGAUUGAGCAUCA
# B18: chr22:29528936:29529239:-|three_prime_utr|ENSG00000100296|control|control|control (ssRNA)
# RNA: GGGAGUUCUACAGUCCGACGAUCGAUUCGUCCCCCAGGGACACCAGGUCACCAUCCAAGGGCAGUCCUGGUCUUUGGAGAACUAGCUGGACUAGUUCUGUGUAGCAGGAAGCUUGACUUGAAUGUCUUAGCACCCUGGAGUAGCAACAGAGGAUUGAGCAUCA
# B19: chr6:52502144:52502313:-|3pUTR|ENSG00000065308|msi1|FALSE|unique (ssRNA)
# RNA: GGGAGUUCUACAGUCCGACGAUCUCAGCCAUUCACAAGCAUUCAAAACCAAACCAAACAGCAGUUCAUAUACCUGCCUGAGAUAGGCUGGUCCUCACCUCCAGAGCCAGCCAGCCCCGUCAGGGGCCAAACUUACUACCUUGACAACAGAGGAUUGAGCAUCA
# B20: ENSG00000198589:be:win_8301|CDS|ENSG00000198589|bound_else_gene|NA|bound_elsewhere_windowed (ssRNA)
# RNA: GGGAGUUCUACAGUCCGACGAUCAGAUGAUAACAUAAGAGCCAUCCAGCUGAGCCGAGAUGGGCAGUACCUGCUCACAGGAGGAGACAGAGGAGUGGUCGUGGUCCGGCAGGUGUCGGACCUCAAGCAGCUCUUUGCCUAUCCCAACAGAGGAUUGAGCAUCA
# B21: ENSG00000126767:stop:overlap|stop_codon|ENSG00000126767|stop_codon|NA|stop_codon (ssRNA)
# RNA: GGGAGUUCUACAGUCCGACGAUCUGAGCGGCCAGAAGUUCGUCUACAAGUUUGUGUCCUACCCUGAGUCCCAUUGCGCCCCGUAGCCCGGCCAAGCUCUCCUUCCAGUUUCCAUCCAGUGGCAGCGCCCAGGUGCACAUCCCUCAACAGAGGAUUGAGCAUCA
# B22: ENSG00000011304:stop:overlap|stop_codon|ENSG00000011304|stop_codon|NA|stop_codon (ssRNA)
# RNA: GGGAGUUCUACAGUCCGACGAUCACAACCACGACCUCGGGGAGAACCACCACCUGCGGGUCUCCUUCUCCAAGUCCACCAUCUAGGGGCACAGGCCCCCACGGCCGGGCCCCCUGGCGACAACUUCCAUCAUUCCAGAGAAAACAACAGAGGAUUGAGCAUCA
# Molecular target: T1, UNK ZnF1-6 (called full-length)
# Assay: nsRBNS (natural sequence RNA bind-n-seq); RBNS binding buffer (assumed for nsRBNS): 25 mM Tris pH 7.5, 150 mM KCl, 3 mM MgCl2, 0.01% Triton X-100, 500 ug/ml BSA, 20 U/ml SUPERase-In, 4 C; UNK is unkempt and MSI1 is Musashi-1; names of the RNAs are library labels; protein concentration not given here; high values mean tight binding
row,Binder,binding signal [enrichment R]
1,B1,0.577
2,B2,0.472
3,B3,0.624
4,B4,1.05
5,B5,0.447
6,B6,0.639
7,B7,1.05
8,B8,0.773
9,B9,0.494
10,B10,0.611
11,B11,0.474
12,B12,1.02
13,B13,0.965
14,B14,0.371
15,B15,0.483
16,B16,1.71
17,B17,0.973
18,B18,1.08
19,B19,0.618
20,B20,0.579
21,B21,1.05
22,B22,0.607

# — paper PMC12136788
